“And” between values parts separate entries of the source, which are not always exact repeats. Equal entries are not always repeated. About 230 (0.21%) of roughly 110,000 compounds showed an effect of 50% or more. Some of the results follow.
biological target: DPAP1 (Plasmodium falciparum, UniProt Q8IIJ9); assay: primary screen, percent inhibition; read by cleavage of a fluorogenic dipeptide substrate; higher = more effect of the substance; set-up: species or system P. falciparum D10 trophozoite lysates; single well
Sequence (Q8IIJ9 whole entry, looked up): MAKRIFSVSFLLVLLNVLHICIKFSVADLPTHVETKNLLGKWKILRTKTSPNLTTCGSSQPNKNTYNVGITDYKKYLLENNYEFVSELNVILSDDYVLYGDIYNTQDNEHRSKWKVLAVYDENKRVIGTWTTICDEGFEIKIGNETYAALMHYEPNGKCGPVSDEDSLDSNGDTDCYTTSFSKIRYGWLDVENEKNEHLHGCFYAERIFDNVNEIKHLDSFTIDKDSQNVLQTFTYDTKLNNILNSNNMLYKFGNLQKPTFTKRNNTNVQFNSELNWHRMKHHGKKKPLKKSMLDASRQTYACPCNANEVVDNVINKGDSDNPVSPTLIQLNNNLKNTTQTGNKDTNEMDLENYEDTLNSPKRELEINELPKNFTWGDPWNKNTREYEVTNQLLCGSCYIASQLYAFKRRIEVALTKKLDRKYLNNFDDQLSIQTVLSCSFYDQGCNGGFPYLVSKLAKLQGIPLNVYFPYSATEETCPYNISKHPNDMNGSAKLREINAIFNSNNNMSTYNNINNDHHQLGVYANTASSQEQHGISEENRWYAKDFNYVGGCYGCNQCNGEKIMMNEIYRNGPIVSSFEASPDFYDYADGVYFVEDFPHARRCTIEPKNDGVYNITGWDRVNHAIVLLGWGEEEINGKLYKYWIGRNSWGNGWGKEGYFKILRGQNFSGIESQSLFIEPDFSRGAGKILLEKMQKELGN
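Further: 30 min substrate incubation versus DMSO and 10 µM JCP410 controls.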

Row | Compound | % Inhibition @ 10 uM
1 | CSCCC(NC(=O)/C(=C\c1ccco1)NC(=O)c1ccc(Br)cc1)C(=O)O (centres unmarked) | -1.93%
2 | CCOc1ccc(-c2csc(-c3cc4c(ccc5ccccc54)oc3=O)n2)cc1 | -5.96%
3 | COc1cccc(NC(=O)CN(c2cc(C)ccc2OC)S(=O)(=O)c2ccccc2)c1 | 0.538% and 3.56%
4 | Cc1ccsc1CN(C(=O)c1ccccc1F)C1CCS(=O)(=O)C1 (centres unmarked) | 0.569%
5 | CCN(CC)C(=O)C1CCCN(Cc2ccc(OC)c(C)c2)C1 (centres unmarked) | -3.87%
6 | Cc1onc(-c2ccccc2Cl)c1C(=O)NC1CC1 | 2.36%
7 | COc1ccc(-c2cc(C(=O)Nc3c(C)nn(Cc4ccc(C)cc4)c3C)no2)cc1 | -4.79%
8 | CCN(CC)S(=O)(=O)c1ccc(F)c(C(=O)NCCC(C)C)c1 | -7.57%
9 | CC1CC(C)CN(C(=O)C2CCC(CNS(=O)(=O)c3ccc(Br)s3)CC2)C1 (centres unmarked) | -2.56%
10 | COCCCNc1cc(C)nc2c(-c3ccc(Cl)cc3)c(C)nn12 | 2.35%
11 | O=C(Nc1nccs1)C1CCC(CNS(=O)(=O)c2cccc3nsnc23)CC1 (centres unmarked) | 4.54%
12 | CCc1ccc(OCC(=O)NCc2ccc(OC)cc2)c(Br)c1 | 0.83%
13 | c1ccc(-c2nnc(N3CCOCC3)nc2-c2ccccc2)cc1 | -1.5%
14 | CNS(=O)(=O)c1cn(CC(=O)N2CCN(Cc3ccccc3)CC2)cc1S(=O)(=O)NC | -3.99%
15 | CCOc1ccc(-c2cc(NC(=O)Cn3ncc4c(=O)oc5ccc(C)cc5c43)on2)cc1 | -5.25%
16 | CC(C)c1ccc(N(CC(=O)N2CCc3ccccc3C2)S(C)(=O)=O)cc1 | 0.472%
17 | O=S(=O)(c1ccc(-c2cc(C(F)(F)F)no2)s1)N1CCN(c2ncccn2)CC1 | -2.5%
18 | O=C(/C=C/C=C/c1ccccc1)c1ccc(Cl)cc1 | -2.13%
19 | COc1ccc2cc3c(N)nn(C(=O)c4cncc(Br)c4)c3nc2c1 | 0.809%
20 | Cc1onc(-c2ccccc2Cl)c1C(=O)N1CCN(c2ccccn2)CC1 | 1.84%
21 | CC(C)SC1=NSC2=NC(=O)/C(=C\c3ccc4c(c3)OCO4)C(=N)N21 | 1.97%
22 | COc1cc(NS(=O)(=O)c2cc(Cl)ccc2OC)c(OC)cc1Cl | -3.95%
23 | OC1CCN(Cc2c(Cl)cccc2Cl)CC1 | -0.603%
24 | O=S(=O)(c1ccc(Sc2ccc(S(=O)(=O)N3CCOCC3)cc2)cc1)N1CCOCC1 | -6.22%
25 | Cc1ccc(CNC(=O)CNS(=O)(=O)c2cccc3nsnc23)cc1 | -5.76%
26 | Cc1cc(C)cc(-n2c(C)cc(/C=C3\NC(=O)NC3=O)c2C)c1 | 9.47%

Row | Compound | % Inhibition @ 10 uM
27 | C=CCN1C(=O)/C(=C\Nc2ccc(F)cc2)C(=O)N(CCCC)C1=O | -1.06%
28 | Cn1nnnc1SCCCNCc1cccs1 | -4.71%
29 | Cc1ccccc1NC(=O)CC(=O)c1ccccc1 | -4.58%
30 | CC(C)Cc1c(C#N)c(SCC(N)=O)nc2c1CCCC2 | 9.71%
31 | CCCC(=O)NCc1ccc(CNC(=O)CCC)cc1 | 3.67%
32 | Cc1ccc(-c2nc(CS(=O)(=O)CC(=O)NCCc3c[nH]c4ccccc34)c(C)o2)cc1 | -1.89%
33 | COc1ccc(-c2noc(CN3CCC(C(=O)Nc4cccnc4Cl)CC3)n2)cc1OC | 3.43%
34 | COc1cccc(-c2nn(C)c3sc(C(=O)NCCCN(C)Cc4ccccc4)cc23)c1 | -4.14%
35 | CN1CCC(N(C)C2CC3CCC2C3)CC1 (centres unmarked) | 1.29%
36 | CSc1ccc(CN2CCN(C(=O)c3ccco3)CC2)cc1 | 0.777%
37 | Cc1cc(C)nc(SCC(=O)Nc2ccccc2Cl)n1 | 4.83%
38 | O=C(NCc1ccc(Cl)cc1)c1ccco1 | -7.3%
39 | O=S(=O)(CCc1nc2ccccc2s1)c1ccc(Br)cc1 | -1.79%
40 | NC(=S)Cc1c[nH]c2ccccc12 | -5.51%
41 | Cc1ccc(/C=c2/sc3nc4cc(C)c(C)cc4n3c2=O)o1 | 10.9%
42 | O=C(c1ccc(CS(=O)(=O)c2c(Cl)cccc2Cl)o1)N1CCN(c2ncccn2)CC1 | 0.718%
43 | CN(c1ccc(C(=O)NCc2ccccn2)cc1)S(C)(=O)=O | -3.33%
44 | COc1ccc2c(CNCc3cc(OC)c(OC)c(OC)c3)c(C(=O)O)n(C)c2c1 | 3.9%
45 | Cc1cc(C)n(Cc2ccc(C(=O)Nc3ccc(C)c(Cl)c3)o2)n1 | 5.79%
46 | CC(O)C#CC1(C)CCCC(C)(C)O1 (centres unmarked) | -0.0369%
47 | O=C1OC(c2ccccc2F)=N/C1=C\c1cccc(Br)c1 | -3.71%
48 | C#CCOc1cc(Br)c(/C=C2/NC(=O)NC2=O)cc1OCC | 0.487%
49 | COc1cccc(CNC(=O)CCNS(=O)(=O)c2cccs2)c1 | 1.83%
50 | O=c1c2c(-c3ccc([N+](=O)[O-])cc3)csc2nc2n1CCC2 | 5.77%
51 | O=c1oc2ccc(Br)cc2cc1-c1nc(-c2ccccc2F)no1 | 0.0147%
52 | Cc1cc2nc(NC3=NCN(CCc4ccccc4)CN3)nc(C)c2cc1C | -2.75%

Row | Compound | % Inhibition @ 10 uM
53 | CC(C)(C)NC(=O)c1c(F)cccc1F | 1.13%
54 | COc1ccc2nc(N3CCCC(C(=O)NCCC4=CCCCC4)C3)sc2c1 (centres unmarked) | -4.65%
55 | CSc1cnn(-c2ccccc2)c(=O)c1O | 13.9%
56 | COC(=O)c1cc2oc3ccccc3c2n1Cc1nc(-c2ccccc2)oc1C | 1.72%
57 | Cc1ccc(/C=C2/C(=N)N3C(=NC2=O)SN=C3S(C)(=O)=O)o1 | 0.163%
58 | O=C(NCc1cccs1)c1ccc2c(c1)ncn2C1CCCC1 | -3.12%
59 | CN(C)CCCC1(O)c2ccccc2CSc2sccc21 (centres unmarked) | 0.843%
60 | CCCCC(C(=O)N1CCCCC1)N1C(=O)c2ccccc2C1=O (centres unmarked) | 5.59%
61 | O=C(NCCCO)/C(=C\c1ccco1)NC(=O)c1ccccc1Cl | 11.5%
62 | CNc1ccc(Cl)cc1C(O)c1ccccc1 (centres unmarked) | -3.27%
63 | O=C(Nc1cccc([N+](=O)[O-])c1)c1cccc(S(=O)(=O)N2CCOCC2)c1 | -0.0217%
64 | O=C(NCc1ccco1)c1sc2cc(F)ccc2c1Cl | -0.294%
65 | CCc1ccc(CN2C(=O)c3ccccc3C2C(=O)NCC2CCCO2)cc1 (centres unmarked) | 2.35%
66 | CCCSc1ncc(Cl)c(C(=O)N(Cc2ccc(C(C)(C)C)cc2)C2CCS(=O)(=O)C2)n1 (centres unmarked) | -0.45%
67 | COc1ccccc1-c1cc(C(=O)O)c2ccccc2n1 | -4.91%
68 | COc1cc2c(cc1OC)C(c1cccc([N+](=O)[O-])c1)NCC2 (centres unmarked) | 1.66%
69 | O=C(/C=C/c1ccc(Cl)cc1)Nc1ccccc1O | -5.84%
70 | O=C(C1=C(O)C(=O)N(c2ccccn2)C1c1cccnc1)c1ccc(Br)cc1 (centres unmarked) | -1.95%
71 | COc1ccc(C2=NN(c3nc(-c4ccc(S(=O)(=O)N5CCCC5)cc4)cs3)C(c3ccc(OC)cc3)C2)cc1 (centres unmarked) | -4.31%
72 | COc1cccc(C2=N/C(=C\c3ccc(C(C)C)cc3)C(=O)O2)c1 | -2.05%
73 | COc1ccc(NC(C#N)c2ccc(OC)cc2)cc1 (centres unmarked) | -5.07%
74 | CCCCNc1ccc2cccc(O)c2n1 | 1.9%
75 | COc1ccc(NC(=O)CC2Sc3ccccc3NC2=O)cc1 (centres unmarked) | 18.6%
76 | O=C(NC1CCCC1)C1CCN(c2nc3ccc(Br)cc3s2)CC1 | -11%
77 | COC(=O)C1=CN(Cc2ccc(OC)cc2)C=C(C(=O)OC)C1c1ccsc1 | 0.611%
78 | O=C(O)CN(CC(=O)O)C1CCS(=O)(=O)C1 (centres unmarked) | 9.29%

Row | Compound | % Inhibition @ 10 uM
79 | O=C(O)CSc1nncn1-c1ccccc1 | 0.00784%
80 | CCOc1ccc2c(=O)c(Oc3ccc(F)cc3)c(C)oc2c1C | -2.37%
81 | CCOC(=O)c1c(NC(=O)N(C(C)C)C2CCN(C(C)=O)CC2)sc2c1CCCC2 | 2.27%
82 | Cc1ccc2cc3c(N)c(C(=O)Nc4ccc(F)cc4)sc3nc2c1 | 3.99%
83 | CCOc1ccc(CCNC(=O)C2CCCN(c3nn4c(=O)cc(C)nc4s3)C2)cc1OCC (centres unmarked) | -2%
84 | COc1ccc(S(=O)(=O)Cc2ccc(C(=O)NC3CCC(C)CC3)o2)cc1 (centres unmarked) | -1.28%
85 | CC1(C)CC(=O)c2sc(NC(=O)/C=C/c3ccccc3)nc2C1 | 1.97%
86 | C=CCOc1ccc(C(=O)n2cc(Br)cn2)cc1 | 2.1%
87 | Cn1c(=O)n(Cc2ccc(Cl)cc2)c2ccccc21 | -2.37%
88 | Oc1c2c(nc3nc(-c4ccccc4)nn13)CCC2 | -2.4%
89 | CC1(C)CC(=O)C2=C(C1)N(c1nc[nH]n1)C(N)=C(C#N)C2c1cccc(Br)c1 (centres unmarked) | 1.03%
90 | Cc1ccc(C(=O)C2CCCCC2)cc1 | 1.13%
91 | CCC(C)Cn1c(C(O)c2ccccc2)nc2ccccc21 (centres unmarked) | -0.0735%
92 | CCOc1ccc(CCNC(=O)C(C)n2nc(C)c3sc4ccccc4c3c2=O)cc1 (centres unmarked) | -5.95%
93 | N#C/C(=C\c1c(Oc2ccccc2)nc2ccccn2c1=O)S(=O)(=O)c1ccc(Cl)cc1 | -0.828%
94 | Cc1ccc(CCN2CC(C(=O)NCCc3ccccc3)CC2=O)cc1 (centres unmarked) | -0.0542%
95 | O=C(NCc1ccco1)C1COc2ccccc2O1 (centres unmarked) | -9.26%
96 | COc1ccc(C(=O)Nc2ccc(OCc3ccccc3)cc2)cc1OC | -0.992%
97 | CCN(CC)CCN(C)C1C2CC3CC(C2)CC1C3 (centres unmarked) | 1.29%
98 | CCCN1CCN(C(=O)Cn2nc(C)c3c(C)n(-c4ccccc4)nc3c2=O)CC1 | -0.307%
99 | NC(=O)CSc1nnc(COc2cccc3cccnc23)n1-c1ccc(Cl)cc1 | 1.72%
100 | O=C(NCc1ccc(CNC(=O)c2cccs2)cc1)c1cccs1 | -0.95%
101 | Cc1ccc(C(=O)O)cc1NC(=O)C(C)Oc1ccc(C(C)(C)C)cc1 (centres unmarked) | -0.63%
